In US20130231277A1 (published 2013):

Target: T1, ectodomain of murine βKlotho (F53 to L995 of SEQ ID NO: 218) with a C-terminal FLAG tag (UniProt Q99N32 53-995)
T1 chain: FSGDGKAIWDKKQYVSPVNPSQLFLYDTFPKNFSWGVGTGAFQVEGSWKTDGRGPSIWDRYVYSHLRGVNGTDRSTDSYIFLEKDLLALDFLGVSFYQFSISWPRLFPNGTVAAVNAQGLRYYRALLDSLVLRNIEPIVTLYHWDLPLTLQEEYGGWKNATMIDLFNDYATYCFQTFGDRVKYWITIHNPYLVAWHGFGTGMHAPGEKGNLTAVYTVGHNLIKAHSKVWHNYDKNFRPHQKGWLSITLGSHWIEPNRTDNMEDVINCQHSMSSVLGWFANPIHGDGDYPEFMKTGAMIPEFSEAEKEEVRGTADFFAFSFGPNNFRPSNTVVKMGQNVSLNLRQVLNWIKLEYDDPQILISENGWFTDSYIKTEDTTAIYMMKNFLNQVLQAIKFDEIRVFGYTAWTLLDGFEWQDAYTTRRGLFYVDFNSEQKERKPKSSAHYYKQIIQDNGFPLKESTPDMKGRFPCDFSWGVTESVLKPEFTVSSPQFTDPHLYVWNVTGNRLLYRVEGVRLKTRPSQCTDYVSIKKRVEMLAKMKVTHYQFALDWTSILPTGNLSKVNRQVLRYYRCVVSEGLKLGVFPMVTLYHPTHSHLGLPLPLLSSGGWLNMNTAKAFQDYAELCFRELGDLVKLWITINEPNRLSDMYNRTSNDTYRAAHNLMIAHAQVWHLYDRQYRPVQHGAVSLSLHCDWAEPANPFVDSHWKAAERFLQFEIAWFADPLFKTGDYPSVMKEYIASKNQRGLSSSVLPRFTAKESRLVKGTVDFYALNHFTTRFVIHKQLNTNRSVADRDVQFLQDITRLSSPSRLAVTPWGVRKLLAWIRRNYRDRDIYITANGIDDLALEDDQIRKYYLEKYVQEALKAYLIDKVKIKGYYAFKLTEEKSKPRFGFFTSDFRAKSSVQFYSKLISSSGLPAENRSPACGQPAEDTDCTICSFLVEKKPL
Assay: SPR

B1: ligand-binding domain of human FGFR4 ([…] of SEQ ID NO: 230) (receptor)
chain: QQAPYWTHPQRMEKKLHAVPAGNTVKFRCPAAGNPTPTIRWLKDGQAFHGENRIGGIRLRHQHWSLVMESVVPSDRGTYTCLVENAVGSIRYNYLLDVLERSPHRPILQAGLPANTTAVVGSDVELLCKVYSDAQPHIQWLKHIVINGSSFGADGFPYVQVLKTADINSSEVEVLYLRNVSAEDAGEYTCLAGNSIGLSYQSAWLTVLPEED
- Kd: 84 nM
